# Measurements from the supplement of paper PMC3334620.
# Over roughly 33,000 sequences, “E-score (-0.5 to 0.5)” has its median near -0.012; the highest 2% begin near 0.29. Some of the results follow.
# Biological target: T1, Ybr033w (UniProt P38073)
# T1 sequence: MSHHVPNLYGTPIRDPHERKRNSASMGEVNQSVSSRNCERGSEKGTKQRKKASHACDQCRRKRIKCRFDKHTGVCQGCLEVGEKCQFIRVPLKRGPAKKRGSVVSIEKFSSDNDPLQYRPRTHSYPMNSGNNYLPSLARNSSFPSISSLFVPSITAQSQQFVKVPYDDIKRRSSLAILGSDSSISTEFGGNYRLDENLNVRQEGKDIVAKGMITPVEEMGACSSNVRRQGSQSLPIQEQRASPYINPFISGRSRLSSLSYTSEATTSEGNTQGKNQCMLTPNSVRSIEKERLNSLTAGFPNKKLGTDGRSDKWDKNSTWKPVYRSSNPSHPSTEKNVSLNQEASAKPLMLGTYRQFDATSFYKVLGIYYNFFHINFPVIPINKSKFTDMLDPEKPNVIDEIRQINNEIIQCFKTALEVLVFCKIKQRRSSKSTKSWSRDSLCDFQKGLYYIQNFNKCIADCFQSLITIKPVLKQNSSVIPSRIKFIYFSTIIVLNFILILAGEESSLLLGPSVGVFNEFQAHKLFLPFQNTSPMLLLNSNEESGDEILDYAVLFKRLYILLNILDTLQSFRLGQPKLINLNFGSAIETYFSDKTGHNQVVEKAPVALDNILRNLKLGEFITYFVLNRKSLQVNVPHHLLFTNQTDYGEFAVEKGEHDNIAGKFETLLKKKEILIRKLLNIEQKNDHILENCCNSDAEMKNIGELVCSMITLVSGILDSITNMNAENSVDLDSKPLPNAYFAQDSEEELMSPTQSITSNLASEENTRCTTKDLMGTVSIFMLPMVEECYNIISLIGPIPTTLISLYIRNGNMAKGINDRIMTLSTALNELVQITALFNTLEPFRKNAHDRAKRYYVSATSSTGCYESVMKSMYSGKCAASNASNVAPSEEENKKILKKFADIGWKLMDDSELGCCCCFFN
# Test: PBM E-score (8-mer binding enrichment) (E-score (-0.5 to 0.5)); higher = stronger / more preferred TF binding; most listed sequences are background and not binding sites
# Conditions: protein concentration: 200 nM; construct: GST-full length
# Procedure, shortened: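 PURExpress in vitro transcription/translation supplied GST-tagged yeast transcription factors, either full-length or DNA-binding domain. Applied at about 100-200 nM to universal all-10-mer Agilent arrays double-stranded by primer extension, the bound protein was detected with fluorescent anti-GST. E-scores, modified Wilcoxon-Mann-Whitney statistics, were given by the Universal PBM Analysis Suite to ungapped eight-base words pooled with their reverse complements after masliner normalisation.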
row,Sequence,PBM E-score
1,GAGTGGCA,-0.1
2,ACTACCTG,0.0162
3,GTACACAC,0.158
4,ACAAGGCA,-0.0526
5,CAGCCACG,-0.025
6,CCCCCATC,-0.185
7,CCTAATTA,0.108
8,AATCCGGC,0.0673
9,GTCCTTAA,-0.0118
10,CGTAATAG,0.072
11,TAGGTCAA,0.00894
12,ATAGTCTA,0.072
13,TCCGTCCA,0.1
14,CCACCTGC,-0.11
15,CAGTCATC,-0.26
16,CGTACCGA,-0.0339
17,CCTTTCTC,-0.11
18,CTGCATCC,-0.0871
19,ACAAACAA,0.203
20,ATATATTC,0.326
21,GGGTATTA,0.0508
22,ACGAGGTC,0.0631
23,ACCCGAAA,0.0532
24,AGCATTAT,0.207
25,GCGGGTAA,-0.107

row,Sequence,PBM E-score
1,CATAGAGG,0.00683
2,GGCCGTAC,-0.0178
3,ATACCGAG,-0.118
4,CGTCATGA,-0.0962
5,ATATGTGC,-0.0166
6,AATTAGGC,0.154
7,CGTGAACA,0.00947
8,CTCATTTC,0.0132
9,ACTGGTAC,-0.141
10,ATTTGCCC,-0.146
11,CCCTCCTC,-0.237
12,ACCACTCG,0.0665
13,GTAGTGGA,0.0676
14,AGTCTTTG,0.0289
15,AAATAAGT,0.295
16,ATAGCAGC,-0.127
17,ATACATAC,0.0684
18,ACCCTAGC,-0.263
19,TAACAGCA,0.18
20,ACGGTTAG,-0.124
21,GCTGAGGA,-0.194
22,AACAGCAC,0.0684
23,AGGAATGC,-0.0532
24,AATCCGAG,-0.0191
25,CTTTGACC,0.104

row,Sequence,PBM E-score
1,TCTTTCAA,-0.046
2,GGCCTTGA,-0.0647
3,CGGATTCA,0.00016
4,GCATCGGA,0.0661
5,AATCTCTC,0.16
6,ACGTACCA,0.0664
7,GAGCTTCA,0.0668
8,AGTTTCTG,0.141
9,GTTTTGCA,0.0627
10,AGCTCTCA,-0.135
11,CGAACGAA,0.198
12,CTAAGCAA,-0.00495
13,AAGCTCTG,-0.0801
14,GTTTAGTA,0.22
15,ACGAATTG,0.0671
16,GCGGTTAC,0.0342
17,CAAGTTTA,0.16
18,GATCGAAC,-0.149
19,CCCAGTGC,-0.0946
20,CACATCTA,0.213
21,GTACCCAA,-0.0659
22,CTGCCCTC,-0.315
23,CAGAACCC,-0.176
24,AGTATACC,0.0685
25,GACTAGTC,-0.222

row,Sequence,PBM E-score
1,GCGACCAC,-0.172
2,AGAACCGA,-0.0242
3,ATCCGTGG,-0.0187
4,ATACATTA,0.229
5,AGGCGACA,-0.148
6,GATATGGA,0.196
7,AGGTTCGG,-0.185
8,GCATTTCA,0.11
9,AATCCGAA,0.162
10,CAGGGAAA,-0.0648
11,AAGCTGGC,-0.105
12,AGACCGGC,-0.264
13,AATGTCCC,-0.159
14,AGGGGTGA,-0.356
15,CAAACGGG,-0.0584
16,CTCGCTGA,-0.133
17,GCGTAAAC,0.0736
18,GAACCGTA,-0.222
19,CCGCAGCG,-0.0846
20,ATAAAACG,0.149
21,ACTTTGGC,-0.00974
22,ACTATCGA,0.0636
23,GGCACAAC,-0.0942
24,CAAAGGTA,-0.0471
25,TGTTCCAA,0.267

row,Sequence,PBM E-score
1,ACTACTGC,-0.0476
2,CCTCACAC,-0.126
3,GCATGAGA,-0.0587
4,CCAACTCA,0.194
5,ACATTGAC,0.0386
6,GTTCCTAA,0.125
7,CGAGCTCC,-0.0992
8,ACATGTTG,0.244
9,GCGAGGGA,-0.223
10,ACATTTCC,0.199
11,CCAAATCC,-0.0471
12,GATTCAGC,-0.0285
13,GCCTAGAA,0.0921
14,CAATAATG,0.137
15,GAAGACAA,-0.0348
16,TGAAGAAA,0.134
17,TCCTATAA,0.16
18,CCACATCC,-0.0275
19,CAGACTGG,-0.0641
20,CTATCCGA,0.0774
21,CAAAAATA,0.316
22,GGTTGTAC,-0.0389
23,GTCGAAAC,0.0562
24,ATGAACGC,0.141
25,GCCACGCC,-0.269

row,Sequence,PBM E-score
1,ATAGCGTC,-0.0496
2,CTACAGGC,-0.208
3,CACTTCGA,-0.00432
4,TATGGACA,0.0972
5,AGAACGGC,-0.0173
6,CCATGAAC,0.0633
7,ACGTTCGC,-0.209
8,ACTGGCTC,-0.146
9,AATCAACG,0.157
10,CAGGTGCG,0.119
11,AGGTCCCC,-0.284
12,AGTCGTGC,-0.189
13,ATGTTAGC,0.162
14,AGTTGCAC,-0.0723
15,TAGTTAGA,0.142
16,ACTCAATC,0.108
17,GCCCATCC,-0.319
18,AATCGGCT,0.0915
19,CTTATTAA,0.17
20,CAAAGTTC,0.029
21,AGTATTCG,-0.0384
22,CAGGGCAG,-0.204
23,CATTGTGC,0.0224
24,CGGCGGCC,-0.284
25,TACTAACA,0.249

row,Sequence,PBM E-score
1,CAGGAGAA,0.241
2,AATCCGTG,-0.071
3,CGTGCGGA,-0.147
4,CTAGGTTC,-0.127
5,CACAGATG,0.1
6,GGTACACA,-0.065
7,CCTTATCA,0.0859
8,GAACCGGC,-0.233
9,CCTGTGAG,-0.0427
10,ACACCGCG,-0.151
11,ACATTCTC,0.0969
12,ACCCAGAC,-0.103
13,GACGAGGC,-0.197
14,TCTTCCAA,0.169
15,TAGCCACA,0.0256
16,AACACCTT,-0.0028
17,AGTAGACT,-0.0063
18,GACGTTCC,0.0346
19,ATAGGTTA,0.124
20,GAATACTA,0.204
21,CGGTCCTA,-0.295
22,TGGGGAAA,0.0688
